# In patent US20230159453A1 (COCRYSTAL PHARMA, INC., priority 2020, published 2023):
# Molecular target: Noro protease (Norovirus, UniProt Q83883)
# Test: Norovirus protease inhibition assay (Noro-Norwalk FRET protease assay)
# Conditions: IC50 (μM), peptide substrate 10 μM, 90 minutes at 37° C., compounds 200 μM to 10.2 nM
row,Compound,IC50 [µM]
1,"CCCC[C@H](NC(=O)OC(c1ccccc1)C(C)(C)c1cccc(Cl)c1)C(=O)N[C@H](C=O)C[C@@H]1CCNC1=O (stereo partly drawn) [Compound C157, 2-(3-Chlorophenyl)-2-methyl-1-phenylpropyl ((S)-1-oxo-1-(((S)-1-oxo-3-((S)-2-oxopyrrolidin-3-yl)propan-2-yl)amino)hexan-2-yl) carbamate]",3.1
2,O=C(N[C@@H](CC1CCCCC1)C(=O)N[C@@H](C[C@@H]1CCNC1=O)C(=O)C(=O)NC1CC1)OC(Cc1cccc(Cl)c1)c1ccccc1 (some centres unmarked) [Compound C158],100
3,"O=C(N[C@@H](CC1CCCCC1)C(=O)N[C@@H](C[C@@H]1CC2(CCCC2)NC1=O)C(=O)C(=O)NC1CC1)OC1CCCC1Cc1cccc(Cl)c1 (stereo partly drawn) [Compound C159, 2-(3-Chlorobenzyl)cyclopentyl ((2S)-3-cyclohexyl-1-((4-(cyclopropylamino)-3,4-dioxo-1-(2-oxo-1-azaspiro[4.4]nonan-3-yl)butan-2-yl)amino)-1-oxopropan-2-yl)carbamate]",75.3
4,"CC(C)(c1cccc(Cl)c1)C(OC(=O)N[C@@H](CC1CCCCC1)C(=O)N[C@H](C=O)C[C@@H]1CCNC1=O)c1ccccc1Cl (stereo partly drawn) [Compound C160, 1-(2-chlorophenyl)-2-(3-chlorophenyl)-2-methylpropyl ((S)-3-cyclohexyl-1-oxo-1-(((S)-1-oxo-3-((S)-2-oxopyrrolidin-3-yl)propan-2-yl)amino)propan-2-yl) carbamate]",4.3
5,"COc1cccc2[nH]c(C(=O)N[C@@H](CC(C)C)C(=O)N[C@@H](C[C@@H]3CCNC3=O)C(=O)COP(=O)(O)O)cc12 [Compound C161, (S)-3-((S)-2-(4-methoxy-1H-indole-2-carboxamido)-4-methylpentanamido)-2-oxo-4-((S)-2-oxopyrrolidin-3-yl)butyl dihydrogen phosphate]",> 200
6,"CC1(C)CC(C[C@@H](C=O)NC(=O)[C@H](CC2CCCCC2)NC(=O)OC(Cc2cccc(Cl)c2)c2cccc(Cl)c2)C(=O)N1 (stereo partly drawn) [Compound C162, 1,2-Bis(3-Chlorophenyl)ethyl ((2S)-3-cyclohexyl-1-((1-(5,5-dimethyl-2-oxopyrrolidin-3-yl)-3-oxopropan-2-yl)amino)-1-oxopropan-2-yl)carbamate]",8.3
7,"CC(C)C[C@H](NC(=O)OC(c1ccccc1)C(C)(C)c1cccc(Cl)c1)C(=O)N[C@@H](CC1CC(C)(C)NC1=O)C(=O)C(=O)NC1CC1 (stereo partly drawn) [Compound C163, 2-(3-Chlorophenyl)-2-methyl-1-phenylpropyl ((2S)-1-((4-(cyclopropylamino)-1-(5,5-dimethyl-2-oxopyrrolidin-3-yl)-3,4-dioxobutan-2-yl)amino)-4-methyl-1-oxopentan-2-yl) carbamate]",62.8
8,"CCCC[C@H](NC(=O)OC(c1ccccc1)C(C)(C)c1cccc(Cl)c1)C(=O)N[C@@H](CC1CCNC1=O)C(=O)C(N)=O (stereo partly drawn) [Compound C164, 2-(3-Chlorophenyl)-2-methyl-1-phenylpropyl ((S)-1-(((S)-4-amino-3,4-dioxo-1-((S)-2-oxopyrrolidin-3-yl)butan-2-yl)amino)-1-oxohexan-2-yl) carbamate]",143
9,"O=C[C@H](CC1CC2(CCCC2)NC1=O)NC(=O)[C@H](CC1CCCCC1)NC(=O)OC1CCCC1Cc1cccc(Cl)c1 (stereo partly drawn) [Compound C165, 2-(3-chlorobenzyl)cyclopentyl ((2S)-3-cyclohexyl-1-oxo-1-((1-oxo-3-(2-oxo-1-azaspiro[4.4]nonan-3-yl)propan-2-yl)amino)propan-2-yl)carbamate]",5.5
10,"CC(C)C[C@H](NC(=O)OC(c1ccccc1)C(C)(C)c1cccc(Cl)c1)C(=O)N[C@@H](C[C@@H]1CCNC1=O)C(=O)C(=O)NC1CC1 (stereo partly drawn) [Compound C166, 2-(3-Chlorophenyl)-2-methyl-1-phenylpropyl ((S)-1-(((S)-4-(cyclopropylamino)-3,4-dioxo-1-((S)-2-oxopyrrolidin-3-yl)butan-2-yl)amino)-4-methyl-1-oxopentan-2-yl)carbamate]",13.9
11,"CC1(C)CC(C[C@H](NC(=O)[C@H](CC2CCCCC2)NC(=O)OC2CCCC2Cc2cccc(Cl)c2)C(=O)C(=O)NC2CC2)C(=O)N1 (stereo partly drawn) [Compound C167, 2-(3-Chlorobenzyl)cyclopentyl ((2S)-3-cyclohexyl-1-((4-(cyclopropylamino)-1-(5,5-dimethyl-2-oxopyrrolidin-3-yl)-3,4-dioxobutan-2-yl)amino)-1-oxopropan-2-yl)carbamate]",38.6
12,"O=C(N[C@@H](CC1CCCCC1)C(=O)N[C@@H](CC1CC2(CCCCC2)NC1=O)C(=O)CO)OCc1cccc(Cl)c1 (stereo partly drawn) [Compound C168, 3-Chlorobenzyl ((2S)-3-cyclohexyl-1-(((2S)-4-hydroxy-3-oxo-1-(2-oxo-1-azaspiro[4.5]decan-3-yl)butan-2-yl)amino)-1-oxopropan-2-yl)carbamate]",> 200
13,"CC(C)C[C@H](NC(=O)OC1(Cc2cccc(Cl)c2)CCC1)C(=O)N[C@@H](CC1CC2(CCOCC2)NC1=O)C(=O)C(=O)NC1CC1 (stereo partly drawn) [Compound C169, 1-(3-chlorobenzyl)cyclobutyl ((2S)-1-((4-(cyclopropylamino)-3,4-dioxo-1-(2-oxo-8-oxa-1-azaspiro[4.5]decan-3-yl)butan-2-yl)amino)-4-methyl-1-oxopentan-2-yl)carbamate]",> 200
14,"CS(=O)(=O)N1CCC2(CC1)CC(C[C@H](NC(=O)[C@H](CC1CCCCC1)NC(=O)OCc1cccc(Cl)c1)C(=O)C(=O)NC1CC1)C(=O)N2 (stereo partly drawn) [Compound C170, 3-Chlorobenzyl ((2S)-3-cyclohexyl-1-(((2S)-4-(cyclopropylamino)-1-(8-(methylsulfonyl)-2-oxo-1,8-diazaspiro[4.5]decan-3-yl)-3,4-dioxobutan-2-yl)amino)-1-oxopropan-2-yl)carbamate]",52.5
15,"O=C(N[C@@H](CC1CCCCC1)C(=O)N[C@@H](CC1CC2(CCCCC2)NC1=O)C(=O)C(=O)N1CCCC1)c1cc2ccccc2[nH]1 (stereo partly drawn) [Compound C171, N-((2S)-3-cyclohexyl-1-((3,4-dioxo-1-(2-oxo-1-azaspiro[4.5]decan-3-yl)-4-(pyrrolidin-1-yl)butan-2-yl)amino)-1-oxopropan-2-yl)-1H-indole-2-carboxamide]",> 200
16,"CC1(C)CC(C[C@H](NC(=O)[C@H](CC2CCCCC2)NC(=O)OC(Cc2cccc(Cl)c2)c2cccc(Cl)c2)C(=O)C(=O)NC2CC2)C(=O)N1 (stereo partly drawn) [Compound C172, 1,2-Bis (3-Chlorophenyl) ethyl ((2S)-3-cyclohexyl-1-((4-(cyclopropylamino)-1-(5,5-dimethyl-2-oxopyrrolidin-3-yl)-3,4-dioxobutan-2-yl)amino)-1-oxopropan-2-yl)carbamate]",> 200
17,O=C(N[C@@H](CC1CCCCC1)C(=O)N[C@@H](C[C@@H]1CCNC1=O)C(=O)C(=O)NC1CC1)OCc1cccc(Cl)c1 [Compound C173],44
18,"CCCC[C@H](NC(=O)OC(c1ccccc1)C(C)(C)c1cccc(Cl)c1)C(=O)N[C@@H](CC1CCNC1=O)C(=O)C(=O)NC1CC1 (stereo partly drawn) [Compound C174, 2-(3-Chlorophenyl)-2-methyl-1-phenylpropyl ((S)-1-(((S)-4-(cyclopropylamino)-3,4-dioxo-1-((S)-2-oxopyrrolidin-3-yl)butan-2-yl)amino)-1-oxohexan-2-yl) carbamate]",57.9
19,"O=C(N[C@@H](CC1CCCCC1)C(=O)NC(CC1CC2(CCOCC2)NC1=O)C(=O)C(=O)NC1CC1)OCc1cccc(Cl)c1 (stereo partly drawn) [Compound C176, 3-Chlorobenzyl ((2S)-3-cyclohexyl-1-((4-(cyclopropylamino)-3,4-dioxo-1-(2-oxo-8-oxa-1-azaspiro[4.5]decan-3-yl)butan-2-yl)amino)-1-oxopropan-2-yl)carbamate]",69.7
20,"CS(=O)(=O)N1CCC2(CC1)CC(CC(NC(=O)[C@H](CC1CCCCC1)NC(=O)OC1CCCC1Cc1cccc(Cl)c1)C(=O)C(=O)NC1CC1)C(=O)N2 (stereo partly drawn) [Compound C177, 2-(3-chlorobenzyl)cyclopentyl ((2S)-3-cyclohexyl-1-((4-(cyclopropylamino)-1-(8-(methylsulfonyl)-2-oxo-1,8-diazaspiro[4.5]decan-3-yl)-3,4-dioxobutan-2-yl)amino)-1-oxopropan-2-yl)carbamate]",100
21,"CS(=O)(=O)N1CCC2(CC1)CC(C[C@@H](C=O)NC(=O)[C@H](CC1CCCCC1)NC(=O)OCc1cccc(Cl)c1)C(=O)N2 (stereo partly drawn) [Compound C178, 3-Chlorobenzyl ((2S)-3-cyclohexyl-1-(((2S)-1-(8-(methylsulfonyl)-2-oxo-1,8-diazaspiro[4.5]decan-3-yl)-3-oxopropan-2-yl)amino)-1-oxopropan-2-yl)carbamate]",3.5
22,"COc1cccc2[nH]c(C(=O)N[C@@H](CC3CCCCC3)C(=O)NC(C=O)CC3CC4(CCOCC4)NC3=O)cc12 (stereo partly drawn) [Compound C179, N-((2S)-3-cyclohexyl-1-oxo-1-((1-oxo-3-(2-oxo-8-oxa-1-azaspiro[4.5]decan-3-yl)propan-2-yl)amino)propan-2-yl)-4-methoxy-1H-indole-2-carboxamide]",3.1
23,"CC1(C)CC(CC(C=O)NC(=O)[C@H](CC2CCCCC2)NC(=O)OC(Cc2cccc(Cl)c2)c2ccccc2)C(=O)N1 (stereo partly drawn) [Compound C180, 2-(3-Chlorophenyl)-1-phenylethyl ((2S)-3-cyclohexyl-1-((1-(5,5-dimethyl-2-oxopyrrolidin-3-yl)-3-oxopropan-2-yl)amino)-1-oxopropan-2-yl) carbamate]",6.1
24,CC(C)(c1cccc(Cl)c1)[C@@H](OC(=O)N[C@@H](CC1CCCCC1)C(=O)N[C@@H](C[C@@H]1CCNC1=O)C(=O)C(N)=O)c1cccc(F)c1 [Compound C182],106
25,CC(C)(c1cccc(Cl)c1)[C@H](OC(=O)N[C@@H](CC1CCCCC1)C(=O)N[C@@H](C[C@@H]1CCNC1=O)C(=O)C(N)=O)c1cccc(F)c1 [Compound C183],16.2
26,"CC(C)(c1cccc(Cl)c1)[C@@H](OC(=O)N[C@@H](CC1CCCCC1)C(=O)N[C@@H](C[C@@H]1CCNC1=O)C(=O)C(=O)NC1CC1)c1cccc(F)c1 [Compound C184, (S)-2-(3-chlorophenyl)-1-(3-fluorophenyl)-2-methylpropyl ((S)-3-cyclohexyl-1-(((S)-4-(cyclopropylamino)-3,4-dioxo-1-((S)-2-oxopyrrolidin-3-yl)butan-2-yl)amino)-1-oxopropan-2-yl)carbamate]",81.7
